Measurements from PMC4336329 (PLoS ONE, 2015).
Among all 310,000 compounds or so, about 2,200 (0.71%) showed an effect of 50% or more. Effects have a minus sign here. The list shows a part of the results.

molecular target: human ether-à-go-go-related gene (hERG) potassium channel (human, UniProt Q12809); assay: primary screen, population patch clamp on CHO cells stably expressing hERG
Sequence (Q12809 whole entry, looked up): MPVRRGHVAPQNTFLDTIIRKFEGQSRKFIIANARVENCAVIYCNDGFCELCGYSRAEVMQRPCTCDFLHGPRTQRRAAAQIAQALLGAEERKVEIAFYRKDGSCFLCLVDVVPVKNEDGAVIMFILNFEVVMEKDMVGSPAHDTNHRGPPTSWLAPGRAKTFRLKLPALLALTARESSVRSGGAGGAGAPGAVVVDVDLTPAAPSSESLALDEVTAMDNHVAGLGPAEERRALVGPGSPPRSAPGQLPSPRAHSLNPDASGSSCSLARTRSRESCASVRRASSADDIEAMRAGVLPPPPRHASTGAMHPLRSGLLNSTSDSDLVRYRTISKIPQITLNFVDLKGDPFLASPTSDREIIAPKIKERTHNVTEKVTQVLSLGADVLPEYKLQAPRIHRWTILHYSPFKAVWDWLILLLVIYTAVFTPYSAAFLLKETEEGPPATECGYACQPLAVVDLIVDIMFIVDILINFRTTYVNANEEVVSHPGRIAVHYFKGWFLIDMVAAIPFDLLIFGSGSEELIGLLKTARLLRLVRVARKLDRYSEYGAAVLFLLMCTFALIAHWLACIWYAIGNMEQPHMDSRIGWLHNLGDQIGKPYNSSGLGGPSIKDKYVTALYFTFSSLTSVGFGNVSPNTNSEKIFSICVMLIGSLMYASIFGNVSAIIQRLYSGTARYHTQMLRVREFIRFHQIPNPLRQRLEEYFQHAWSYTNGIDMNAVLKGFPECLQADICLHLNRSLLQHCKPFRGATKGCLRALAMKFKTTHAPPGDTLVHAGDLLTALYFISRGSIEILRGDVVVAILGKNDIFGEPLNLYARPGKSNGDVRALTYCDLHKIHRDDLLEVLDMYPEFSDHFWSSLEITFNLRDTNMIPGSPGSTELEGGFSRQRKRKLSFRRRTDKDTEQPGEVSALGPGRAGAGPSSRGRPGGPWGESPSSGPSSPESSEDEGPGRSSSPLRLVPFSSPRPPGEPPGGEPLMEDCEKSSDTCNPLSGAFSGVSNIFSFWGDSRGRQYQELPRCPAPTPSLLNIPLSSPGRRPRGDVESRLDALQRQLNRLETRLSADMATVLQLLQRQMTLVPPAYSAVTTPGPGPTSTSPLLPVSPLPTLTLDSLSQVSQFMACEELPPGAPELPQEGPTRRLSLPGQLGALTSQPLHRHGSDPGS

Point of comparison: `NC(Cc1ccc(Oc2ccc(O)cc2)cc1)C(=O)O` (centres unmarked), “hERG current change (%, negative = inhibition) at 1uM” value 7.98%. Against it:
- COc1cc(C(=O)OCC(=O)NC(=O)C2CCCCC2)ccc1OC(F)F — higher, 14.2%
- COc1ccc(NC(=S)Nc2ccccc2)c(OC)c1 — higher, 10.5%
- COc1cccc(NC(=O)c2ccc(-n3cnnn3)cc2)c1 — higher, 12%
- Cc1cccn2c(NC(=O)c3cccs3)c(-c3ccccc3)nc12 — higher, 8.31%
- CN(C)CCCOc1nn(Cc2ccccc2)c2ccccc12.Cl — lower, -1.26%
- CSc1nc(Nc2ccc(Cl)cc2)c(C#N)c(=O)[nH]1 — higher, 14.3%
- COc1ccc(C(=O)Nc2cccc(/C=C/c3nc4ccccc4c(=O)[nH]3)c2)cc1 — lower, -1.15%
- CC(C)CC(NC(N)=O)C(=O)Nc1ccc2c(c1)OCO2 (centres unmarked) — higher, 14.8%
- O=C(NC1CCCC1)C1CCC(=O)N1C1CCCC1 (centres unmarked) — higher, 15.9%
- Cc1ccc2c(c1)C1(C)C(C(C)(C)N2C=O)C1(Cl)Cl (centres unmarked) — higher, 13%
- CCCCC(c1nnnn1C1CCCC1)N1CCN(C2CCCCC2)CC1 (centres unmarked) — lower, -63.1%
- COc1ccc(S(N)(=O)=O)cc1C(=O)OCCCOc1ccc(F)cc1 — lower, -1.96%
- Nc1nc2c(s1)C(=O)CC(c1ccccc1)C2 (centres unmarked) — higher, 9.16%
- CCCCC(=O)Nc1ccccc1C(=O)OCC(=O)c1ccc2c(c1)OCCO2 — higher, 14.3%
- CCn1nc(NC(=O)c2cccnc2)c2cc3cccc(C)c3nc21 — lower, 3.87%
- Cn1cccc1-c1cc(C(=O)N/N=C/c2ccc([N+](=O)[O-])cc2)[nH]n1 — higher, 9.28%
- Cc1ccc(COc2coc(CN3CCN(C(=O)c4ccco4)CC3)cc2=O)cc1 — lower, -16.4%
- CCOc1ccc(CN(C)C(=O)CNC(=O)Cc2cccc3ccccc23)cc1 — higher, 12.9%
- Cc1cc(C(=O)N/N=C/c2ccc(-c3cccc(Cl)c3Cl)o2)n[nH]1 — higher, 11.3%
- COC(=O)c1c(C)n(-c2ccc(OC)cc2)c2ccc(O)cc12 — higher, 11.2%
- Cc1cc(-n2nc(C)cc2C)nc(NS(=O)(=O)c2ccccc2)n1 — higher, 14.2%
- Cc1ccc(N(CC(=O)N2CCCC2)S(C)(=O)=O)cc1C — higher, 8.52%
- CC(C)c1ccc(/C=C2\SC(N3CCCC3)=NC2=O)cc1 — higher, 15.7%
- COc1ccc(CCn2c(O)c(/C=N/N3CCOCC3)c(=O)[nH]c2=O)cc1OC — lower, 6.38%
- Cc1cc(NC(=O)CSc2nnc(-c3ccncc3)n2C)n(-c2ccccc2)n1 — lower, 7.94%
- CCCOP(=O)(c1ccc(N(C)C)cc1)C(O)c1ccc(Cl)cc1Cl (centres unmarked) — lower, -0.951%
- CN1CCN(C(=O)c2ccc(Cl)cc2)CC1 — higher, 15.1%
- O=S(N1CCc2ccccc21)C12CC3CC(CC(C3)C1)C2 (centres unmarked) — lower, 3.28%
- CCOc1cc(C=O)ccc1OCC(N)=O — higher, 9.52%
- Cc1c(NC(=O)COc2cccc(Br)c2)c(=O)n(-c2ccccc2)n1C — lower, 4.12%
- Cn1cnc2c(NCc3ccco3)ncnc21 — higher, 10.1%
- CC1CCCCN1S(=O)(=O)c1ccc2c(c1)CCN2C(=O)CCC(=O)O (centres unmarked) — lower, 2.01%
- CC(=O)N1CCN(C(=O)CCc2nnc(CCCCc3ccccc3)o2)CC1 — higher, 9.94%
- Cc1cc2ncn(C(=O)c3c(-c4c(Cl)cccc4Cl)noc3C)c2cc1C — lower, 6.72%
- CNS(=O)(=O)c1ccc(-c2ccc(C=C3C(=O)NC(=O)NC3=O)o2)cc1 — higher, 12.6%
- O=C(CC1Sc2ccccc2NC1=O)OCC(=O)N1CCc2ccccc21 (centres unmarked) — higher, 16.1%
- Cc1ccc(CNc2cnn(C34CC5CC(CC(C5)C3)C4)c(=O)c2Cl)cc1 — lower, 2.06%
- CN(c1ccccc1C(=O)Nc1ccccc1-c1ccccc1)S(C)(=O)=O — higher, 16.6%
- CCOC(=O)c1c(C)oc2c1c(C=NCCC(=O)O)c(O)c1ccccc12 — higher, 14.3%
- Nc1nnc(SCC(=O)N2CCN(c3ccccc3)CC2)s1 — lower, 4.75%
- Cc1ccc(C(=O)CCC(=O)O)cc1 — higher, 9.95%
- CC1(C)CC(=O)C=C(C(=O)NC2CCCc3c2cnn3-c2cc(F)cc(F)c2)O1 (centres unmarked) — lower, 7.6%
- CCCCn1c(CCNC(=O)CCC)nc2ccccc21 — lower, 5.72%
